Each value is the number of isolates with that result; steps that no isolate showed are left empty. MIC of clinical M. tuberculosis isolates from a national drug-resistance survey, broth microdilution on MYCOTB, UKMYC5 or UKMYC6 plates (ranges differ by plate), read after 10-21 days; higher = less susceptible. Call: the paper's susceptible [S] / resistant [R] by the drug's critical concentration (it differs by plate for some drugs); calls for ofloxacin and levofloxacin are not shown. MYCOTB plates carry ofloxacin; the paper halves those MICs to stand for levofloxacin, and they are doubled back here. The top step of a plate is printed with and without '>' in the source and is marked '>=' when plain; the plain lowest step of rifampicin and kanamycin on MYCOTB is marked '<='. Isolates that the source marks as part of the WHO data set are not listed here.
Legend:
Assay in all cases: Isolates counted by MIC; Broth microdilution on commercial drug-susceptibility plates, read by two operators.
[1] = test system: Mycobacterium tuberculosis lineage 3 on plate UKMYC6 (383 isolates)
[2] = test system: Mycobacterium tuberculosis lineage 4 on plate MYCOTB (1613 isolates)
[3] = test system: Mycobacterium tuberculosis lineage 2 on plate UKMYC5 (530 isolates)
[4] = test system: Mycobacterium tuberculosis lineage 2 on plate UKMYC6 (1565 isolates)
[5] = test system: Mycobacterium tuberculosis lineage 4 on plate UKMYC5 (155 isolates)
[6] = test system: Mycobacterium tuberculosis lineage 2 on plate MYCOTB (3815 isolates)
[7] = test system: Mycobacterium tuberculosis lineage 1 on plate MYCOTB (31 isolates)
[8] = test system: Mycobacterium tuberculosis lineage 4 on plate UKMYC6 (614 isolates)
[9] = test system: Mycobacterium tuberculosis lineage 4 on plate UKMYC6 (615 isolates)
[10] = test system: Mycobacterium tuberculosis lineage 2 on plate UKMYC6 (1564 isolates)
[11] = test system: Mycobacterium tuberculosis lineage 3 on plate UKMYC6 (380 isolates)

CCc1cc(C(N)=S)ccn1 [ethionamide]
Conditions	isolate count
[1], MIC: 0.5 mg/L	69 [S]
[1], MIC: 1 mg/L	239 [S]
[1], MIC: 2 mg/L	61 [S]
[1], MIC: 4 mg/L	4 [S]
[1], MIC: ≤0.25 mg/L	7 [S]
[1], MIC: ≥8 mg/L	3 [R]
[2], MIC: 0.6 mg/L	653 [S]
[2], MIC: 1.2 mg/L	724 [S]
[2], MIC: 2.5 mg/L	90 [S]
[2], MIC: 5 mg/L	35 [R]
[2], MIC: 10 mg/L	10 [R]
[2], MIC: 20 mg/L	3 [R]
[2], MIC: >40 mg/L	1 [R]
[2], MIC: ≤0.3 mg/L	88 [S]
[2], MIC: ≥40 mg/L	9 [R]
[3], MIC: 0.5 mg/L	78 [S]
[3], MIC: 1 mg/L	277 [S]
[3], MIC: 2 mg/L	75 [S]
[3], MIC: 4 mg/L	75 [S]
[3], MIC: >8 mg/L	4 [R]
[3], MIC: ≤0.25 mg/L	7 [S]
[3], MIC: ≥8 mg/L	14 [R]
[4], MIC: 0.5 mg/L	692 [S]
[4], MIC: 1 mg/L	674 [S]
[4], MIC: 2 mg/L	73 [S]
[4], MIC: 4 mg/L	18 [S]
[4], MIC: >8 mg/L	16 [R]
[4], MIC: ≤0.25 mg/L	58 [S]
[4], MIC: ≥8 mg/L	34 [R]
[5], MIC: 0.5 mg/L	11 [S]
[5], MIC: 1 mg/L	81 [S]
[5], MIC: 2 mg/L	41 [S]
[5], MIC: 4 mg/L	18 [S]
[5], MIC: ≤0.25 mg/L	1 [S]
[5], MIC: ≥8 mg/L	3 [R]
[6], MIC: 0.6 mg/L	2440 [S]
[6], MIC: 1.2 mg/L	728 [S]
[6], MIC: 2.5 mg/L	91 [S]
[6], MIC: 5 mg/L	66 [R]
[6], MIC: 10 mg/L	38 [R]
[6], MIC: 20 mg/L	13 [R]
[6], MIC: >40 mg/L	1 [R]
[6], MIC: ≤0.3 mg/L	387 [S]
[6], MIC: ≥40 mg/L	52 [R]
[7], MIC: 0.6 mg/L	5 [S]
[7], MIC: 1.2 mg/L	14 [S]
[7], MIC: 2.5 mg/L	7 [S]
[7], MIC: 20 mg/L	1 [R]
[7], MIC: ≤0.3 mg/L	2 [S]
[7], MIC: ≥40 mg/L	2 [R]
[8], MIC: 0.5 mg/L	140 [S]
[8], MIC: 1 mg/L	292 [S]
[8], MIC: 2 mg/L	143 [S]
[8], MIC: 4 mg/L	16 [S]
[8], MIC: >8 mg/L	2 [R]
[8], MIC: ≤0.25 mg/L	11 [S]
[8], MIC: ≥8 mg/L	10 [R]

CC[C@@H](CO)NCCN[C@@H](CC)CO [ethambutol]
isolate count
Conditions	[1]	[2]	[3]	[4]	[5]	[6]	[7]	[9]
MIC: 0.12 mg/L	–	–	2 [S]	2 [S]	–	–	–	–
MIC: 0.25 mg/L	2 [S]	–	–	13 [S]	3 [S]	–	–	1 [S]
MIC: 0.5 mg/L	9 [S]	–	7 [S]	133 [S]	3 [S]	–	–	28 [S]
MIC: 1 mg/L	162 [S]	899 [S]	305 [S]	900 [S]	99 [S]	2270 [S]	17 [S]	364 [S]
MIC: 2 mg/L	201 [S]	556 [S]	169 [S]	428 [S]	47 [S]	1130 [S]	11 [S]	207 [S]
MIC: 4 mg/L	9 [S]	65 [S]	31 [S]	44 [S]	2 [S]	112 [S]	–	11 [S]
MIC: 8 mg/L	–	11 [R]	–	35 [R]	–	95 [R]	2 [R]	3 [R]
MIC: 16 mg/L	–	8 [R]	–	6 [R]	–	32 [R]	–	–
MIC: >8 mg/L	–	–	1 [R]	–	–	–	–	–
MIC: >32 mg/L	–	1 [R]	–	1 [R]	–	–	–	–
MIC: ≤0.5 mg/L	–	70 [S]	–	–	–	170 [S]	–	–
MIC: ≥8 mg/L	–	–	15 [R]	–	1 [R]	–	–	–
MIC: ≥32 mg/L	–	3 [R]	–	3 [R]	–	13 [R]	1 [R]	1 [R]

COc1c(N2C[C@@H]3CCCN[C@@H]3C2)c(F)cc2c(=O)c(C(=O)O)cn(C3CC3)c12 [moxifloxacin]
isolate count
Conditions	[1]	[2]	[3]	[5]	[6]	[7]	[9]	[10]
MIC: 0.12 mg/L	258 [S]	93 [S]	99 [S]	30 [S]	286 [S]	1 [S]	134 [S]	289 [S]
MIC: 0.25 mg/L	18 [S]	656 [S]	289 [S]	72 [S]	2080 [S]	13 [S]	318 [S]	898 [S]
MIC: 0.5 mg/L	1 [S]	733 [S]	96 [S]	46 [S]	1090 [S]	13 [S]	125 [S]	274 [S]
MIC: 1 mg/L	–	38 [S]	8 [S]	3 [S]	49 [S]	2 [S]	6 [S]	18 [S]
MIC: 2 mg/L	1 [R]	17 [R]	19 [R]	–	57 [R]	1 [R]	6 [R]	24 [R]
MIC: 4 mg/L	–	14 [R]	–	–	89 [R]	1 [R]	–	–
MIC: >4 mg/L	–	–	–	–	–	–	3 [R]	14 [R]
MIC: >8 mg/L	–	3 [R]	–	–	2 [R]	–	–	–
MIC: ≤0.06 mg/L	105 [S]	34 [S]	8 [S]	4 [S]	89 [S]	–	13 [S]	24 [S]
MIC: ≥4 mg/L	–	–	11 [R]	–	–	–	10 [R]	23 [R]
MIC: ≥8 mg/L	–	25 [R]	–	–	66 [R]	–	–	–

COc1nc2ccc(Br)cc2cc1[C@@H](c1ccccc1)[C@@](O)(CCN(C)C)c1cccc2ccccc12 [bedaquiline]
isolate count
Conditions	[3]	[5]	[8]	[10]	[11]
MIC: 0.015 mg/L	3 [S]	–	41 [S]	120 [S]	5 [S]
MIC: 0.03 mg/L	173 [S]	55 [S]	204 [S]	557 [S]	14 [S]
MIC: 0.06 mg/L	272 [S]	71 [S]	334 [S]	736 [S]	272 [S]
MIC: 0.12 mg/L	54 [S]	13 [S]	14 [S]	82 [S]	69 [S]
MIC: 0.25 mg/L	2 [S]	2 [S]	11 [S]	30 [S]	19 [S]
MIC: 0.5 mg/L	1 [R]	–	1 [R]	2 [R]	1 [R]
MIC: 1 mg/L	–	1 [R]	–	–	–
MIC: >1 mg/L	–	–	–	2 [R]	–
MIC: >2 mg/L	1 [R]	–	–	–	–
MIC: ≤0.008 mg/L	–	–	9 [S]	32 [S]	–
MIC: ≤0.015 mg/L	22 [S]	13 [S]	–	1 [S]	–
MIC: ≥1 mg/L	–	–	–	2 [R]	–
MIC: ≥2 mg/L	2 [R]	–	–	–	–

CC1COc2c(N3CCN(C)CC3)c(F)cc3c(=O)c(C(=O)O)cn1c23 (configuration not stated) [ofloxacin]
isolate count
Conditions	MIC: 0.5 mg/L	MIC: 1 mg/L	MIC: 2 mg/L	MIC: 4 mg/L	MIC: 8 mg/L	MIC: 16 mg/L	MIC: >32 mg/L	MIC: ≤0.25 mg/L	MIC: ≥32 mg/L
[2]	187	1200	107	12	21	17	2	49	19
[6]	899	2500	77	44	69	99	–	97	34
[7]	–	10	19	–	–	1	–	–	1
